Data as given in the antibiotic and cytotoxicity screens of Wong et al. (2023).
The other results are listed elsewhere or left out.

Columns and labels:
HSkMC = human skeletal muscle cells; assay: cytotoxicity call (relative viability < 0.9); settings: 10 µM
HepG2 = assay: cytotoxicity call (relative viability < 0.9); settings: 10 µM
S. aureus RN4220 = assay: growth inhibition call (relative growth <= 0.2); settings: 50 µM

Row | SMILES | cytotoxicity call (HSkMC) | cytotoxicity call (HepG2) | growth inhibition call (S. aureus RN4220)
1 | NC(=O)CSc1nnc(Cc2cc(=O)[nH]c(=O)[nH]2)n1-c1ccccc1 | inactive | inactive | inactive
2 | COc1ccc(NC(=O)N(C)C[C@@H]2OCCCC[C@H](C)Oc3ccc(NC(=O)Nc4ccc5c(c4)OCO5)cc3C(=O)N([C@@H](C)CO)C[C@H]2C)cc1 | inactive | inactive | inactive
3 | CCCNC(=O)N1C[C@H](O)COC[C@H]2O[C@H](CC(=O)NCCCN3CCOCC3)CC[C@@H]21 | inactive | active | inactive
4 | CCCCCCCCCCCCCCCC(=O)CCO | inactive | inactive | inactive
5 | COCC(=O)Nc1ccc2c(c1)C(=O)N(C)[C@H]1CC[C@H](CC(=O)NCc3ccccc3Cl)O[C@H]1CO2 | inactive | inactive | inactive
6 | C[C@H](CO)N1C[C@H](C)[C@@H](CN(C)C(=O)NC2CCCCC2)Oc2ccc(NC(=O)Nc3cccc4ccccc34)cc2CC1=O | inactive | inactive | inactive
7 | C[C@@H]1CN([C@H](C)CO)C(=O)c2cccc(NC(=O)c3cnccn3)c2O[C@@H]1CN(C)CC1CCCCC1 | inactive | inactive | inactive
8 | C[C@@H]1CN([C@H](C)CO)C(=O)c2cc(NC(=O)Nc3ccc(C(F)(F)F)cc3)ccc2O[C@H]1CN(C)C(=O)Nc1cccc2ccccc12 | inactive | active | inactive
9 | Nc1cccc(/C=C/c2ccccn2)c1 | inactive | inactive | inactive
10 | C[C@@H]1CCCCO[C@H](CN(C)Cc2ccc(C(=O)O)cc2)[C@H](C)CN([C@H](C)CO)C(=O)c2cc(NC(=O)Nc3ccc(F)cc3)ccc2O1 | inactive | inactive | inactive
11 | C[C@H](CO)N1C[C@H](C)[C@@H](CN(C)S(=O)(=O)c2cn(C)cn2)OCCCC[C@H](C)Oc2ccc(NS(C)(=O)=O)cc2C1=O | inactive | inactive | inactive
12 | C[C@H]1CN([C@@H](C)CO)S(=O)(=O)c2ccc(-c3cncnc3)cc2O[C@@H]1CN(C)C(=O)CN(C)C | inactive | inactive | inactive
13 | C[C@H]1CN([C@@H](C)CO)C(=O)CCCn2cc(nn2)CO[C@@H]1CN(C)C(=O)Nc1ccc(N2CCN(C)CC2)cc1 | inactive | inactive | inactive
14 | CC(C)(C)[S@](=O)N1Cc2cc(C(=O)NCc3ccccn3)nc(-c3cccc(-c4ccccc4F)c3)c2[C@@H]1CCO | inactive | inactive | inactive
15 | CCC(C=CC(C)C1CCC2C3CC=C4CC(O)CCC4(C)C3CCC12C)C(C)C (stereo not drawn) | inactive | inactive | inactive
16 | C[C@H](CO)N1C[C@H](C)[C@@H](CN(C)S(=O)(=O)c2ccccc2)Oc2c(NS(=O)(=O)c3cn(C)cn3)cccc2C1=O | inactive | inactive | inactive
17 | C[C@@H]1CCCCO[C@@H](CN(C)C(=O)c2ccccc2)[C@H](C)CN([C@@H](C)CO)C(=O)c2cc(NC(=O)NC3CCCCC3)ccc2O1 | inactive | inactive | inactive
18 | O=C(C[C@@H]1C[C@H]2c3cc(NC(=O)Nc4ccc(C(F)(F)F)cc4)ccc3O[C@H]2[C@@H](CO)O1)NC1CCCCC1 | inactive | inactive | inactive
19 | C[C@@H]1CN([C@@H](C)CO)C(=O)Cc2cc(NS(C)(=O)=O)ccc2O[C@@H]1CN(C)C(=O)Nc1ccc2c(c1)OCO2 | inactive | inactive | inactive
20 | COc1cc(N2CCC3(CC2)CNC(=O)CO3)ncn1 | inactive | inactive | inactive
21 | C[C@@H]1CN([C@@H](C)CO)C(=O)c2cc(C3=CCCCC3)cnc2O[C@H]1CN(C)S(=O)(=O)c1cn(C)cn1 | inactive | inactive | inactive
22 | COc1ccccc1CNC(=O)C[C@@H]1CC[C@@H]2[C@H](COC[C@@H](O)CN2C(=O)Nc2ccc(F)cc2)O1 | inactive | inactive | inactive
23 | C[C@H]1CCCCO[C@H](CN(C)Cc2ccc(C(F)(F)F)cc2)[C@@H](C)CN([C@@H](C)CO)C(=O)c2cc(NS(C)(=O)=O)ccc2O1 | inactive | inactive | inactive
24 | C[C@@H]1CN([C@H](C)CO)C(=O)c2cccc(NS(=O)(=O)c3cn(C)cn3)c2O[C@@H]1CN(C)S(=O)(=O)c1cccs1 | inactive | inactive | inactive
25 | Cc1ccc(S(=O)(=O)Nc2cccc3c2O[C@@H](CN(C)S(=O)(=O)c2cccs2)[C@H](C)CN([C@@H](C)CO)C3=O)cc1 | inactive | inactive | inactive
26 | COc1ccc(NC(=O)N(C)C[C@H]2OCCCC[C@H](C)Oc3ccc(NC(=O)NC(C)C)cc3C(=O)N([C@@H](C)CO)C[C@H]2C)cc1 | inactive | inactive | inactive
